The labels stand for the following.
B1: LINE1-full (parent)
chain: UACGUAGGUGGUUUUCCCCUGAUAGUGCUAAGGGGGCCUGGAAGUUUGGACUGGGCAGAGCUCAACACAGCGUGGCAAAGUGGCUGUGGCUAGACUGCCUCUCUGGAUUCCUCGUCACUCAGCAGGGCAUCUCUGAGAGAAAUGCC

Read counts are not given, so values of variants with three or more changes are uncertain.

Variants of B1 are the subject of this data set. Briefly: self-cleavage, relative activity (ratio to wild type); higher = more cleavage; in vitro, sequencing; the parent is a self-cleaving ribozyme.
As to UACGUAGGUGGUUUUCCCCUGAUCGUGCUAAGGGGGCCUGGAAGUACGGACUGGGCAGGGCUCAACACAGCGUGGCAAAGUGGCUGUGGCUAGACUGCCUCUCUGGAUUCCUCGUCACUCAGCAGGGCAUCUCUGAGAGAAGUGCC, the self-cleavage was determined as 0. UACGUAGGUGGUUUUCCCCUGAGAGUGCUAAGGGGGCCUGGAAGUUUGGACAGGGCAGAGCUCAACACAGCGUGGCAAAGUGGCUGUGGCUAGACUGCCUCUCCGGAUUCCUCGUCACUCAGCAGGGCAUCUCUGAGAGAAAUGCC: the self-cleavage is 1.18. To UACGUAGGUGGUUUUCCCCUGACAGUGCUAAGGGGGCCUGGAAGAUUAGACUGGGCAGAGCUCAACACAGCGUGGCGAAGUGGCCGUGGCUAGACUGCCUCUCUGGAUUCCUCGUCACUCAGCAGGGCAUCUCUGAGAGAAAUGCC belongs 0.33.

UACGUAGGUGGUUUUCCCCUGACAGUGCUAAGGGGGCCUGGAAGUUUGGACUGGGCAGAGCUCAACACAGCGUGGCAAAGUGGCUGUGGCUAGACUGCCUCUCUGGAUUCCUCGCCACUCAGCAGGACAUCUCUGAGAGUAAUGCC: the self-cleavage worked out at 2.08. In the case of UACGUAGGUGGUUUUCCCCUGAUCGUGCUAAGGGGGCCUGGAAGUUUGGACUGGGCAGAGCUCAACACAGCGUGGCAAAGUGGCUGUGUCUAGACUGCCUCUCUGGAUUCCUCAUCACUCAGCAGGGCAUCUCUGAGAGAAAUGCC it was 0.05; in that of UACGUAGGUGGUUUUCCCCUGACAGUGCUAAGGGGGCCUGGAAGUUGGGACUGGGCAGAGCUCAACACAGCGUGGCAAAGUGGCUGUGGCUAGACUGCCUCUCUGGAUUCCUCGUCACUCUGCAGGUCAUCUCUGAGAGAAAUGCC, 1.65; in that of UACGUAGGUGGUUUUCCCCUGACAGUGCUAAGGGGGCCUGGAAGUUUGGACUGGGCAGAGCUCAACACAGCGCGGCAAAGUGGCUGUGGCUAGACCGCCUCUCAGGAUUCCUCGUCACUCAGCAGGGCAUCUCUGAGAGAAAAGCC, 0. In the case of UACGUAGGUGGUUUUCCCCUGACAGUGCUAAGGGGGCCUGGAAGUUUGGACCGGGCGGAGCUCAACACAGCGUGGCAAAGUGGCUGUGGCUAGACUGCCUCUCUGGAUUCCUCGUCACUCAGCAGGGCAUCUCUGAGAGAAAUGCC it was 0.56; in that of UACGUAGGUGGUUUUCCCCUGACAGUGCUAAGGGGGCCUGGAAGUUUGGACUGGGCAGAGCUCAACACAGCGUGGCAAAGUGGCCGUGGCUAGACUGCCUCUCUGGAUUCCUCGUCACUCAGCAGGGCAUCUCUGAGAGGAGUGCC, 0.09; in that of UACGUAGGUGGUUUUCCCCUGACAGUGCCAAGGGGGCCUGGAAGUUUGGACUGGGCAGAGCUCAACACAGCGUGGCAAAGGGGCUGUGGCUAGACUGCCCCUCUGGAUUCCUCGUCACUCAACAGGGCAUCUCUGAGAGAAAUGCC, 2.22. To UACGUAGGUGGUUUUCCCCUGACAGUGCUAAGGGGGCCUGGAAGUUUGGACUGGGCAGAGCUCAACACAGCGUGGCAAAGUGGCUGUGGCUAGACCGCCUCUCUGGAUUCCUCGUCACUCAGCAGGGCAUCUCCGAGAGAAAUGCC belongs 0.1; to UACGUAGGUGGUUUUCCCCUGAGGGUGCUAAGGGGGCCUGGAAGUUCGGACUGGGCAGAGCUCAACACAGCGUGGCAAAGUGGCUGUGGCUAGACUGCCUCUCUGGAUUCCUCGUUACUCAGCAGGGCAUCUCUGAGAGAAAUGCC, 1.33. Turning to UACGUAGGUGGUUUUCCCCUGACAGUGCUAAGGGGGCCUGGAAGUUUGGACUGGGCAGAGCUCAACACAGCGUGGCAAAGCGGCUGUGGCUAGACUGCCUCUCUUGAUUCCUCGUCACUCAGCAGGGCAUCUCUGAGAGAAAUGCC, the self-cleavage stood at 1.81.

For the variant UACGUAGGUGGUUUUCCCCUGACAGUGCUAAGGGGGCCUGGAAGUCUGGACUGGGCAGAGCUCAACACAGCGUGGCAAAGUGGCUGUGGCUAGACUGCCUCUCUGGAUUCCUCGUCACUCAGCAGGGCAUCCCUGGGAGAAAUGCC, the self-cleavage was 0.8.

Turning to UACGUAGGUGGUUUUCCCCUGACAGUGCUAAGGGGGCCUGGAAGUCUGGACUGGGCAGAGCUCAACACAGCGUAGCAAAGUGGCUGUGGCUAGACUGCCUCUCUGGAUUCCUCGUCACUCAGCAGGGCAUCUCUGAGAGAAGUGCC, the self-cleavage is 1.62. As for UACGUAGGUGGUUUUCCCCUGAGAGUGCUGAGGGGGCCUGGAAGUUAGGACUGGGCAGAGCUCAACACAGCGUGGCAAAGUGGCUGUGGCUAGACUGCCUCUCUGGAUUCCUCGUCACUCAGCAGGGCAUCUCUGAGUGAAAUGCC, the self-cleavage amounted to 0.9. Take UACGUAGGUGGUUUUCCCCUGACAGUGCUAAGGGGGCCUGGAAGUUCGGACUGGGCAGAGCUCAACACAGCGUGGCAAAGUGGCUGUGGCUAGACUGCCUCUCUGGAUUCCUCGUUACUCAGCAGGGCAUCUCUGAGAGAAAUGCC: the self-cleavage is 0.28. In the case of UACGUAGGUGGUUUUCCCCUGACAGUGCUAAGGGGGCCUGGAAGUUUGGACUGGGCAGAGCUCAACACAGCGUGGCAAAGUGGCUGUGGCUAGACUGCCUCUCCGGAUUUCUCGUCACUCAGCAGGGCAUCUCUGAGAGAAAUGCC it was 1.66. To UACGUAGGUGGUUUUCCCCUGACAGUGCUAAGGGGGCCUGGAAGUUUGGACUGGGCAGAGCUCAACACAGCGUGGCAAAGUGGCUGUGGCUAGACUGCCUCACUGGAUUCCUCGUCACUCAGCAGGGCGUCUCUGAGAGAAAUGCC belongs 2.57; to UACGUAGGUGGUUUUCCCCUGAGAGUGCUAGGGGGGCCUGGAAGUUUGGACUGGGCAGAGCUCAACACAGCGUGGCAAAGUGGCCGUGGCUAGGCUGCCUCUCUGGAUUCCUAGUCACUCAGCAGGGCAUCUCUGAGAGAAGUGCC, 0.74.

The record behind these values is the RNAGym collection of RNA variant scans (doi:10.7554/elife.90254).
